Among all 48,000 compounds or so, about 550 (1.1%) were called active. Another 4% or so got no clear call; they are omitted. Rule as the data show it: active = potency below about 15 µM; inconclusive = mostly about 16 µM to 33 µM; inactive = weaker than that. The list shows a part of the results.
What follows are compounds tested against Lysosomal acid glucosylceramidase (Homo sapiens) (UniProt P04062) (assay: Glucocerebrosidase). Details: purified enzyme, resorufin glucoside fluorescence (screen aimed at inhibitors), 20 min.
Outline: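 Normal human glucocerebrosidase (0.2 nM final) was assayed with resorufin β-D-glucopyranoside (30 uM final) in 50mM citric acid/KH2PO4, 10mM sodium taurocholate, 0.01% tween-20, pH 5.9. Compounds were titrated; fluorescence (Ex 548, Em 600) read after 20 min at RT.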
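Also: the screen sought inhibitors.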
Potency is read from the fitted curve at half-maximal effect.

UniProt P04062, sequence (P04062 whole entry, looked up): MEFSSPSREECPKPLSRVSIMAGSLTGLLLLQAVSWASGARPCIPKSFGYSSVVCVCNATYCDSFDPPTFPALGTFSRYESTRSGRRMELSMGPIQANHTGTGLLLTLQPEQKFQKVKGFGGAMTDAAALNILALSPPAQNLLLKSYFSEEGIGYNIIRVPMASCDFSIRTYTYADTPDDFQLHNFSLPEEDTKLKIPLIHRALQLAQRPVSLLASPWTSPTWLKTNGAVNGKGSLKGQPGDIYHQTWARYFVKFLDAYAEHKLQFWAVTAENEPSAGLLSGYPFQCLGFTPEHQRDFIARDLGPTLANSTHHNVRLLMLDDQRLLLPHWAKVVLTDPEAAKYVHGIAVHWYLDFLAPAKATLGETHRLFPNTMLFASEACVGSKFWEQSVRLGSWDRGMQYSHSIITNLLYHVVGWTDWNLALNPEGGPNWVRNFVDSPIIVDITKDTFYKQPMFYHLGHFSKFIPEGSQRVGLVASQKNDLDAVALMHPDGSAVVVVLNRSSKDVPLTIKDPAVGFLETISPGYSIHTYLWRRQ

Potency, inactive:
CC1Cc2ccccc2N1C(=O)CSc1nnnn1-c1ccc2c(c1)OCCO2 (configuration not stated) > 76.9 µM
CC(=O)N(Cc1cccs1)C1CCOC(C)(C)C1 (configuration not stated) > 76.9 µM
CCOC(=O)c1ccc(N2C(=O)c3n[nH]c(C)c3C2c2ccc(OC)cc2OC)cc1 (configuration not stated) > 76.9 µM
CCN(CC)CC(=O)Nc1c(C)cc(C(C)(C)C)cc1C > 76.9 µM
CCOC(=O)c1ccc(NC(=O)CCNS(=O)(=O)c2ccc3c(c2)oc(=O)n3C)cc1 > 76.9 µM
COc1cccc(-n2c(SC)nnc2-c2cnccn2)c1 > 76.9 µM
CSc1n[nH]c(NCc2ccccc2)n1 > 76.9 µM
Cc1cccc(N2CCN(C(=O)c3ccc(NC(=O)C4CCCO4)cc3)CC2C)c1 (configuration not stated) > 76.9 µM
CC(C)C(NC(=O)CC12CC3CC(CC(C3)C1)C2)C(=O)O (configuration not stated) > 76.9 µM
CCOC(=O)N1CCN(C(=O)CN(C2CCCCC2)S(C)(=O)=O)CC1 > 76.9 µM
Cc1ccc(S(=O)(=O)CCC(=O)OCC(=O)Nc2ncc(Cl)cc2Cl)cc1 > 76.9 µM
Cc1cc(-n2c(C)cc(C(=O)CN3C(=O)NC4(CCCC4)C3=O)c2C)no1 > 76.9 µM
O=C(CSc1nnc(-c2ccccn2)n1Cc1ccco1)c1ccccc1 > 76.9 µM
CN(C(=O)C1CCCO1)c1nnc(-c2ccncc2)s1 (configuration not stated) > 76.9 µM
COc1ccc(C2=CC(c3ccc(OC)c(OC)c3)n3nnnc3N2)c(OC)c1 (configuration not stated) > 76.9 µM
CCOC(=O)N1CCN(S(=O)(=O)c2ccc(C(=O)Nc3nc4ccc(F)cc4s3)cc2)CC1 > 76.9 µM
COc1ccccc1NC(=O)c1cc(S(=O)(=O)N2CCC3(CC2)OCCO3)ccc1F > 76.9 µM
Cc1nc(NC(=O)C2CC3CCCC(C2)C3=O)sc1C (configuration not stated) > 76.9 µM
CCCN1C2CCCC1CC(NC(=O)c1ccccc1OCC)C2 (configuration not stated) > 76.9 µM
O=C1CC(C(=O)Nc2ccc(Br)cc2)C2(CCCC2)O1 (configuration not stated) > 76.9 µM
COCCN(C(=O)CNC(=O)c1ccco1)C(C(=O)NC1CCCCC1)c1cccc(OC)c1 (configuration not stated) > 76.9 µM
COc1ccc(NC(=O)CSc2nncs2)cc1OC > 76.9 µM
CCOc1ccc(CCNC(=O)C2CCCN(c3nnc(-n4cccc4)s3)C2)cc1OCC (configuration not stated) > 76.9 µM
O=C(OCC(=O)N1CCN(C(=O)c2ccco2)CC1)c1ccccc1Cc1ccccc1 > 76.9 µM
CC1CN(c2ccc(Oc3ccccc3)cc2)c2nc3c(c(=O)[nH]c(=O)n3C)n2C1 (configuration not stated) > 76.9 µM
Nc1nnc(SCc2coc(-c3ccc(Cl)cc3)n2)s1 > 76.9 µM
CC(=O)NCCn1c(SCC(=O)OCc2ccccc2)nc2ccccc2c1=O > 76.9 µM
CCOC(=O)c1c(C)c(C(=O)NCCCOC(C)C)c(C)n1C > 76.9 µM
O=C(CCNS(=O)(=O)c1cccs1)Nc1nccs1 > 76.9 µM
Cc1cccc(NC(=O)CCn2ccnc2C)c1 > 76.9 µM
CN(Cc1nc(-c2ccccn2)no1)S(=O)(=O)c1ccc(Br)cc1 > 76.9 µM
Cc1onc(-c2ccccc2Cl)c1C(=O)NCCn1ccc2ccccc21 > 76.9 µM
COCCNC(=O)C1c2ccccc2C(=O)N(CCOC)C1c1ccc(F)cc1 (configuration not stated) > 76.9 µM
Cc1ccc(-c2noc(C3CCCN(C(=O)c4ccc(F)cc4F)C3)n2)cc1 (configuration not stated) > 76.9 µM
COc1ccc(NC(=O)COc2ccccc2C#N)c(S(=O)(=O)N2CCCCC2)c1 > 76.9 µM
O=C1CCC(C(=O)O)(c2ccccc2)C1 (configuration not stated) > 76.9 µM
O=C(NCc1ccccc1)C1CCCN(S(=O)(=O)c2cccnc2)C1 (configuration not stated) > 76.9 µM
O=C(CN1CCN(c2nc(-c3ccc(Cl)cc3)cs2)CC1)NCc1ccco1 > 76.9 µM
Cc1[nH]c2ccc(Br)cc2c(=O)c1CN1CCCCC1 > 76.9 µM
Cc1cccc(Cn2cnc3c(nnn3Cc3ccccc3F)c2=O)c1 > 76.9 µM
Nc1nc(NCc2ccccc2)nc(-c2ccccc2)n1 > 76.9 µM
COc1ccc(-c2ccc(-c3noc(-c4ccc(OC)c(OC)c4)n3)c(OC)n2)cc1 > 76.9 µM
O=C(NCc1ccco1)C(C(=O)c1ccccc1)n1ccccc1=O (configuration not stated) > 76.9 µM
Cn1c(=O)c2c(nc(CN3CCCCC3)n2CCCc2ccccc2)n(C)c1=O > 76.9 µM
N#CC1=C(N)Oc2n[nH]c(-c3cccs3)c2C1c1ccsc1 (configuration not stated) > 76.9 µM
COc1ccccc1NC(=O)CS(=O)(=O)c1cccc2nsnc12 > 76.9 µM
COc1cccc(NC(=O)N2CCCC2C(=O)NC2CC2)c1 (configuration not stated) > 76.9 µM
CC(C(=O)O)c1ccc(-c2ccccc2)c(F)c1 (configuration not stated) > 76.9 µM
Cc1cc2nc3c(nc2cc1C)C1(C(=O)O)CCC3(C)C1(C)C (configuration not stated) > 76.9 µM
COc1ccccc1N1CCN(C(CNS(=O)(=O)c2cc(F)ccc2F)c2cccnc2)CC1 (configuration not stated) > 76.9 µM
CC1=Nn2c(nnc2-c2n[nH]c3c2CCC3)SC1 > 76.9 µM
Cn1c(=O)c2c(nc(SC3C(=O)CC(C)(C)CC3=O)n2C)n(C)c1=O > 76.9 µM
c1ccc2oc(SCc3cn4ccsc4n3)nc2c1 > 76.9 µM
CCOc1ccc2nc(SCC#N)c(C#N)cc2c1 > 76.9 µM
CCN(CC)S(=O)(=O)c1csc(C(=O)NC2CCCCC2)c1 > 76.9 µM
Cc1ccc(-c2csc3nnc(SCC(=O)NCc4ccc5c(c4)OCO5)n23)cc1 > 76.9 µM
COC(=O)c1c(=O)n(O)c2ccc(OC)cc2[n+]1[O-] > 76.9 µM
CCCn1c(O)c(CN2CCCC(C)C2)c(C)c(C#N)c1=O (configuration not stated) > 76.9 µM
CC(C)C(=O)Nc1cccc(C(=O)Nc2nncs2)c1
Cc1onc(-c2c(Cl)cccc2Cl)c1C(=O)NCCN1CCOCC1 > 76.9 µM
Cc1nc(N)sc1Cc1ccc2c(c1)OCO2 > 76.9 µM
O=C(c1ccc(C#Cc2ccccc2)o1)N1CCN(c2ccccn2)CC1 > 76.9 µM
O=c1cc[nH]c2c(C(F)(F)F)cccc12 > 76.9 µM
CCN1C(=O)/C(=C\N2CCN(C)CC2)SC1=S > 76.9 µM
COc1cccc(C2c3c(oc4ccccc4c3=O)C(=O)N2CCCN(C)C)c1OC (configuration not stated) > 76.9 µM
Cc1cccc(-n2cnc3c(c2=O)c2nc4ccccc4nc2n3Cc2ccco2)c1 > 76.9 µM
COc1cc(C)c(C(N)=O)c(OC)n1 > 76.9 µM
C=CCN(CC=C)C(=O)Cc1ccc(F)cc1 > 76.9 µM
O=C(Nc1ccc(N2CCN(C(=O)c3ccccc3)CC2)cc1)c1cc2ccccc2o1 > 76.9 µM
CN1CCN(CC#CC2(O)CCCCC2)CC1 > 76.9 µM
CC(=O)c1c(C(C)=O)c(C)n(-c2ccc(C(=O)O)cc2)c1C > 76.9 µM
Nn1c(SCC(=O)N2CCCCC2)nnc1-c1ccncc1 > 76.9 µM
COc1ccc(NCc2nnc(SCC(=O)Nc3cccc(C)c3)o2)cc1 > 76.9 µM
CCC(C)NC(=O)CN(c1cc(C)ccc1OC)S(C)(=O)=O (configuration not stated) > 76.9 µM
CCOc1ccc(C(CC(=O)O)NS(=O)(=O)c2ccc(C)cc2)cc1OC (configuration not stated)
O=C(CCSc1ccccc1)N1CCOCC1 > 76.9 µM
Cc1nc2nc(COc3ccccc3)nn2c(C)c1Cl > 76.9 µM
CCOC(=O)c1ccc(Nc2cc(C)nc3ncnn23)cc1 > 76.9 µM
COc1ccc(OCCSc2nnc3sc4ccccc4n23)cc1 > 76.9 µM
N#CC1=C(SCc2ccccc2Cl)NC(=O)C(C(N)=O)C1 (configuration not stated) > 76.9 µM
Cn1c(/C(C#N)=C(\O)CN2CCN(Cc3ccccc3)CC2)nc2ccccc21 > 76.9 µM
CC1CCN(S(=O)(=O)c2ccc(NC(=O)CN3CCN(c4ccccc4)CC3)cc2)CC1 > 76.9 µM
CCOC(=O)N1CCN(CC(O)COc2c(OC)cccc2OC)CC1 (configuration not stated) > 76.9 µM
CC(C)(C)NC(=O)C(c1ccccc1F)N(Cc1ccco1)C(=O)c1csnn1 (configuration not stated) > 76.9 µM
COC(=O)C1CCN(c2nc3ccccc3nc2C(C#N)C(=O)OCC(C)C)CC1 (configuration not stated) > 76.9 µM
O=C(NCCCN1CCN(c2cccc(Cl)c2)CC1)c1ccc(N2CCCC2=O)cc1 > 76.9 µM
C=CCn1sc(N)c(C(=O)OCC)c1=S > 76.9 µM
O=C1NCCN1Cc1ccccc1F > 76.9 µM
Cc1cc(NC(=O)c2ccccc2NS(=O)(=O)c2c(C)c(C)cc(C)c2C)no1 > 76.9 µM
O=c1ccnc(S/C=C/c2ccccc2)[nH]1 > 76.9 µM
CC(OC(=O)c1cc2sccc2n1C)C(=O)NCCc1ccccc1 (configuration not stated) > 76.9 µM
Cc1nn(C(=O)c2ccco2)c(C)c1CN1C(=O)c2ccccc2C1=O > 76.9 µM

Reference: PubChem BioAssay AID360 (National Center for Advancing Translational Sciences (NCATS), 2006)
